In all, about 150,000 compounds went through this assay and about 540 (0.36%) showed an effect of 50% or more. The list shows a part of the results.

The % Inhibition is the relative decrease from the control value, in per cent.

For the experiment, the system named is Plasmodium falciparum. The experiment is described as follows: Primary screen in NF54 nanoGlo assay, in single point, at 2uM, 72h; a lower Z score goes with more inhibition. The following applies: timepoint 72 hour. The class given is functional, Erythrocyte.
For `Cc1cccc(N2CCCC2CN2CCCC2CO)n1` (stereo unspecified), the “% Inhibition” value was -16% and the Z score is listed as 2.09.
Consider `Cc1c(Br)cccc1CS(=O)(=O)CCC#N`, for which the “% Inhibition” value is recorded as 6% and the Z score is -0.64.
The corresponding values for `COc1cccc(CO[C@H]2CN(CC(C)C)C(=O)CN(C(=O)c3cncs3)C2)c1` are -10% and 1.32.
`COc1c(C(=O)N[C@H](c2c(C)nn(C)c2C)C(F)(F)F)cnn1C`: the “% Inhibition” value is on record as -11% and the Z score is given as 1.6.
The matching figures for `Cn1c(=O)n(C)c2cc(N3CCCC3)c(NC(=O)NCCc3ccccc3)cc21`: -12% and 2.4.
The matching figures for `COCCC(C)(C)C(=O)Nc1ncc(Cl)s1`: -5% and 0.71.
As for `CC[C@](C)(CO)CNC(=O)c1ccc(C)c(O)c1`, the “% Inhibition” value is -6% and the Z score was 0.65.
For the compound `C[C@H](NCC(=O)Nc1cccc(Br)c1)c1ccc(C(F)F)nc1`, the “% Inhibition” value was -10% and the Z score amounted to 1.56.
For the compound `O=C(NCCc1cnc(O)nc1)[C@@H]1Cc2ccccc21`, the “% Inhibition” value is -1% and the Z score is on record as 0.21.
As for `CCCCS(=O)(=O)NCCNc1ccc(C)nn1`, the “% Inhibition” value is listed as -18% and the Z score is 3.58.
On to `COc1cccc(C(=O)N2CCN(C(=O)c3cc(C)c(C)[nH]c3=O)CC2)c1`, for which the “% Inhibition” value was 8% and the Z score is recorded as -1.16.
For the compound `CN(C[C@H]1COCCO1)C(=O)c1ccc(CO)o1`, the “% Inhibition” value turned out to be 2% and the Z score is -0.38.
The matching figures for `CCc1nc(C)nc(N2CCN(C[C@@H](O)Cc3ccccc3)CC2)c1Cc1ccc(Cl)cc1`: -11% and 1.61.
Turning to `CNS(=O)(=O)CCNC(=O)Nc1ccc2c(cnn2C)c1`, the “% Inhibition” value was -8% and the Z score is 1.54.
Turning to `O=C(Nc1ccccc1F)N1CCC2(CC1)C[C@@H](CCOCC1CC1)CCO2`, the “% Inhibition” value was -8% and the Z score came to 1.58.
The matching figures for `CC(C)(CN1CCCCCC1)NC(=O)c1ccc(CO)o1`: 2% and -0.37.
The corresponding values for `Cc1ccc(CNC(=O)N2CC(O)(C(F)(F)F)C2)nc1` are 4% and -0.7.
The corresponding values for `CCOc1ncccc1-c1ccc(NC)nn1` are -2% and 0.39.
For `CCOC(=O)C1CCN(Cn2nc(NC3CCCCC3)sc2=S)CC1`, the “% Inhibition” value is listed as -25% and the Z score worked out at 3.19.
Turning to `CN(C)c1cc(C(=O)Nc2nncs2)ccn1`, the “% Inhibition” value is reported as -4% and the Z score is on record as 0.55.
As to `CCCc1nc(C)c(CNc2ccc(C(N)=O)c(F)c2)o1`, the “% Inhibition” value is -2% and the Z score was determined as 0.36.
On to `Cc1nc2ncccn2c1C(=O)N[C@H]1CCN(Cc2ccccc2)C1`, for which the “% Inhibition” value is reported as -8% and the Z score amounted to 1.47.
Turning to `CC(C)(C)NC(=O)CN1CCC(CNC(=O)c2ccsc2)CC1`, the “% Inhibition” value is reported as 0% and the Z score is given as 0.
Regarding `NC(=O)C[C@@H]1N[C@]2(C(=O)Nc3ccccc32)[C@@H]2C(=O)N(c3ccc(Cl)cc3)C(=O)[C@H]12`, the “% Inhibition” value is listed as -8% and the Z score was 0.68.
As to `Cc1ccccc1CCNC(=O)N(Cc1cccnc1)C1CCN(C)CC1`, the “% Inhibition” value was -3% and the Z score was determined as 0.61.
Take `COCC[C@@H](CN1CCC=C(F)C1)NC(=O)OC(C)(C)C`: the “% Inhibition” value is -7% and the Z score is 0.73.
For the compound `CC1CCN(c2nc(N3CCCCC3)nc3c2CN(C(=O)COc2ccccc2)CC3)CC1`, the “% Inhibition” value was -12% and the Z score was 1.18.
Regarding `COc1csc(C(=O)Nc2ccnn2Cc2ccsc2)c1`, the “% Inhibition” value is given as -9% and the Z score is recorded as 0.79.
For the compound `CCCC(C(=O)NCc1ccccc1CN1CCCC1CO)c1ccccn1` (stereo unspecified), the “% Inhibition” value is -7% and the Z score is on record as 1.01.
On to `COCCN1C[C@@H](CNC(=O)c2cnn3ccn(C)c23)CC1=O`, for which the “% Inhibition” value amounted to 8% and the Z score is recorded as -1.11.
The matching figures for `CC1CC(NCc2cc3ccccc3n2C)CCN1C` (stereo unspecified): 16% and -2.04.
The corresponding values for `Cc1cc(F)cc(C(=O)NCc2n[nH]c(=O)[nH]2)c1` are -8% and 0.84.
`O=C(NCCc1cnn[nH]1)c1ccc(-c2ncc[nH]2)s1`: the “% Inhibition” value came to 2% and the Z score is -0.3.
In the case of `COCC(=O)NC[C@H]1CN(C(=O)c2cccnc2O)CC12CCCCC2`, the “% Inhibition” value was -3% and the Z score was 0.54.
For `CC(C)CNC(=O)N1CC2(CCCCC2)C[C@@H]1COCc1ccccc1`, the “% Inhibition” value is on record as -8% and the Z score is on record as 1.37.
For `C/C=C(\C)CN1C[C@H](NC(=O)CCN2CCCCC2=O)[C@@H](C2CC2)C1`, the “% Inhibition” value is given as 0% and the Z score is 0.06.
The matching figures for `CN1C[C@@]2(C)CN(C(=O)c3cc4ccccc4[nH]3)C[C@@](C)(C1)C2O` (stereo partly specified): -9% and 1.16.
`CN(C)Cc1ccnc(NC(=O)Nc2cnn(C3CCC3)c2)c1`: the “% Inhibition” value is -16% and the Z score is given as 1.82.
Turning to `Cc1cc(CN(C)C(=O)C#Cc2ccc3c(c2)OCO3)no1`, the “% Inhibition” value is on record as 3% and the Z score is -0.31.
Consider `CCn1cc(Br)cc1C(=O)Nc1ccnn1C(C)C`, for which the “% Inhibition” value worked out at 11% and the Z score was -1.39.
On to `COc1ccc(/C=C/CN(C)Cc2cc(C)[nH]n2)cc1`, for which the “% Inhibition” value is on record as -16% and the Z score stood at 2.02.
The corresponding values for `COc1cccc(-c2nc(S(=O)(=O)c3ccc4c(c3)OCCO4)c(NCCCN3CCOCC3)o2)c1` are -11% and 1.4.
Consider `COCCN1C[C@@H](Cc2ccc(C(F)(F)F)cn2)CC1=O`, for which the “% Inhibition” value was -9% and the Z score is recorded as 1.62.

The values are drawn from ChEMBL document CHEMBL4888484, “Replenishing the malaria drug discovery pipeline: Screening and hit evaluation of the MMV Hit Generation Library 1 (HGL1) against asexual blood stage Plasmodium falciparum ,using a nano luciferase reporter read-out” (2022).
